This is one part of the list.
The sequences below were run against T1, OsWOX13 (Oryza sativa, UniProt Q5QMM3 1-267) (assay: protein-binding microarray (RPBM); PBS, 2% BSA, 51.3 ng/ul salmon testes DNA, 50 uM zinc acetate, 200 nM TF, 25 C, 1 h; high values mean tight binding). Settings: protein: recombinant; tags: N-terminal polyhistidine and DsRed monomer fusion (pET32a); label: CyDye5-dUTP incorporated in the synthesized complementary strand; 3' TTTTT single-stranded linker to array surface; dsDNA, one strand shown.
T1 sequence: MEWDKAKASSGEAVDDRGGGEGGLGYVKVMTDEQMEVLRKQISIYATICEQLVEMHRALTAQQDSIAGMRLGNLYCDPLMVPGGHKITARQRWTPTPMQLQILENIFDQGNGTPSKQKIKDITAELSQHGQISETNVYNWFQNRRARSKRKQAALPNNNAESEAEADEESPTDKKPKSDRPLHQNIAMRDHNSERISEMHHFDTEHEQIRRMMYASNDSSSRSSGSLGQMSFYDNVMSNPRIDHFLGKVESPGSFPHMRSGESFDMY
Method in brief: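 For the binding signal, per-feature fluorescence intensity was read in arbitrary units on an Axon 4000B scanner. Before scanning, a 2% BSA-blocked custom Agilent array made double-stranded with Cy5-dUTP was washed after 1 h at 25 °C with 200 nM protein and 50 µM zinc acetate. The proteins were Ni–NTA-purified transcription factors with N-terminal polyhistidine and DsRed fusions, expressed in E. coli BL21-CodonPlus.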
“TTTAAGCCTAATTGCGTCATGATTTGACAATGTGATACTACGGAGTCACCTAGTGCAG” was tested, and the binding signal was 17800 fluorescence intensity (a.u.).
With “CGAGGGGCTGATCAGCTTCTGCCGGCAGCCGACGTTCGTGCGGAGTCACCTAGTGCAG” the binding signal was 6720 fluorescence intensity (a.u.).
With “GGTGCGACGGCTTGGTTGATTGGGTGACGGGTGGGATTTGCGGAGTCACCTAGTGCAG” the binding signal was 13700 fluorescence intensity (a.u.).
With “CAGCATCACTAATTTGTCTGAATTCTATATTCCATGCTCGCGGAGTCACCTAGTGCAG” the binding signal was 3950 fluorescence intensity (a.u.).
With “AGTAAATAAACTGTTGGAATGGATAAACCGGAGCTACGAGCGGAGTCACCTAGTGCAG” the binding signal was 7810 fluorescence intensity (a.u.).
“GTGATAATTGCAAAATTAGGAATTATGCAAGGGGTGTAGACGGAGTCACCTAGTGCAG” was tested, and the binding signal was 49400 fluorescence intensity (a.u.).
For “TATGATGGAAATCCATATATCCCAGATGGGTGTAAAGGTACGGAGTCACCTAGTGCAG”, the binding signal was 5680 fluorescence intensity (a.u.).
In the case of “ATGCACGGTGATCTAATTAAGCTACTTCTGCTTAACTGCACGGAGTCACCTAGTGCAG”, the binding signal is reported as 3560 fluorescence intensity (a.u.).
With “TTATCAATGACGAGTAAATTTTGGCGGTCATTTCTTAATCCGGAGTCACCTAGTGCAG” the binding signal was 13600 fluorescence intensity (a.u.).
“GGTCTTTGATTGATGAACCAGCAGTGGCGCCAATCCATCCCGGAGTCACCTAGTGCAG” was tested, and the binding signal was 40100 fluorescence intensity (a.u.).
In the case of “CCGCTAATTAATCCGCTGTGCGTTGGACTTGAGTTTAGCGCGGAGTCACCTAGTGCAG”, the binding signal is reported as 25100 fluorescence intensity (a.u.).
With “TCTAATTTAGAATTATTGGTTTAAATTGAACTCCTCTGTCCGGAGTCACCTAGTGCAG” the binding signal was 46200 fluorescence intensity (a.u.).
In the case of “TCTAATAATTTAGAGAGGGTTTAGATTAGGGGTGTAAAGTCGGAGTCACCTAGTGCAG”, the binding signal is reported as 6140 fluorescence intensity (a.u.).
With “CCTCTCTGTTCTTAATTAGCTAGTTACCTCCAAATCAATCCGGAGTCACCTAGTGCAG” the binding signal was 8440 fluorescence intensity (a.u.).
For “CTCAAATTACCAAAACGCCCCTCCTCCCTCCACTACTACCCGGAGTCACCTAGTGCAG”, the binding signal was 10800 fluorescence intensity (a.u.).
“TTCAAAACGTTAATTAATATGAAACCGGAGGGAGTAGGTACGGAGTCACCTAGTGCAG” was tested, and the binding signal was 9620 fluorescence intensity (a.u.).
In the case of “CAATCAATCAGGCAGTGTGTTTAGGCAAAGTAATCACTCCCGGAGTCACCTAGTGCAG”, the binding signal is reported as 16100 fluorescence intensity (a.u.).
For “ATTTAATTGATCTACGACTATAAAATTGAGTTAAACATATCGGAGTCACCTAGTGCAG”, the binding signal was 41900 fluorescence intensity (a.u.).
In the case of “ATAACTAATATAATCGAACCTGCCTCACTTAATATGTGGCCGGAGTCACCTAGTGCAG”, the binding signal is reported as 4830 fluorescence intensity (a.u.).
With “GGAGATTGAAGCCGTCGTCACCGGCCGGCGCGGCGCTTGCCGGAGTCACCTAGTGCAG” the binding signal was 9270 fluorescence intensity (a.u.).
In the case of “TTTGATGATTTAACACTCCTTAAGGTCCCGTCGTTTGGCTCGGAGTCACCTAGTGCAG”, the binding signal is reported as 31500 fluorescence intensity (a.u.).
“GTTTCAGATTGGAGATCTCTGTCTGTCTATCTGTTAATATCGGAGTCACCTAGTGCAG” was tested, and the binding signal was 4320 fluorescence intensity (a.u.).
With “CACTTGACAGATAAATGCATGCACATTGAGTGCCAGCTCGCGGAGTCACCTAGTGCAG” the binding signal was 33400 fluorescence intensity (a.u.).
With “TTTCTTGATTAGGGTTTGAATTCATATTACTAACTTTCCTCGGAGTCACCTAGTGCAG” the binding signal was 38300 fluorescence intensity (a.u.).
“GTAAAATTTTCTGTCTCCAACTCGAGATGGGCATTCAGCCCGGAGTCACCTAGTGCAG” was tested, and the binding signal was 5360 fluorescence intensity (a.u.).
For “GTTGATTGTCCTGCTTCTTTTCTGTATTGAGATTCTTGTACGGAGTCACCTAGTGCAG”, the binding signal was 33600 fluorescence intensity (a.u.).
In the case of “TAAAATTAGAAGTTTAAAGAGATTGAAACGATGTGAGAAACGGAGTCACCTAGTGCAG”, the binding signal is reported as 6510 fluorescence intensity (a.u.).
For “TCTTCTTCTTGTTGTTCTTGTTCTTTCTTCTTCCCCTTTTCGGAGTCACCTAGTGCAG”, the binding signal was 4300 fluorescence intensity (a.u.).
“AATAATTTAAATAAAATTAGATGTTATCGCTATCCCTATTCGGAGTCACCTAGTGCAG” was tested, and the binding signal was 11800 fluorescence intensity (a.u.).
For “TGGAATTTCCCCTGTGATTACATACGTGTGCTCGTAATGTCGGAGTCACCTAGTGCAG”, the binding signal was 7830 fluorescence intensity (a.u.).
“AGTCGAGTCAACTTAATTAACTTAACTTCAACCGTCGCTACGGAGTCACCTAGTGCAG” was tested, and the binding signal was 5940 fluorescence intensity (a.u.).
“TATTCATAAATTTGTAACCGACTTAACAACGTCCATATACCGGAGTCACCTAGTGCAG” was tested, and the binding signal was 4790 fluorescence intensity (a.u.).
For “ATGATGTGACAGTAATATGAATATGGACACATGTATGTCCCGGAGTCACCTAGTGCAG”, the binding signal was 11800 fluorescence intensity (a.u.).
In the case of “CGAGACAAATCTTTTAAATCTAATTGTTCCATGATTTGACCGGAGTCACCTAGTGCAG”, the binding signal is reported as 11000 fluorescence intensity (a.u.).
With “GGTAAAACAGTAATAAATTGGCACCGAACCGCGGGGTAAACGGAGTCACCTAGTGCAG” the binding signal was 19700 fluorescence intensity (a.u.).
With “TATGATTTGATTACACTATTATATTTGTTACAATTAAATCCGGAGTCACCTAGTGCAG” the binding signal was 43700 fluorescence intensity (a.u.).
In the case of “CTATTGAATGAAATTGACGTGTCGCCCGTTTGTTAAAATACGGAGTCACCTAGTGCAG”, the binding signal is reported as 13900 fluorescence intensity (a.u.).
“AAAATTTGAAAATATAGATAATTATGCTAATATTTTAAGACGGAGTCACCTAGTGCAG” was tested, and the binding signal was 4100 fluorescence intensity (a.u.).
“CGATAAACTGAACAATCCCATCTTTGGTTGCTGGAGCAAACGGAGTCACCTAGTGCAG” was tested, and the binding signal was 4330 fluorescence intensity (a.u.).
For “GTCTAAATCCTAGCAGCAAATTGATGATAGACCCACATAGCGGAGTCACCTAGTGCAG”, the binding signal was 11100 fluorescence intensity (a.u.).
For “GTTCGATCATCTGATTGACTCCTCAAGAAAGTTCATTTGCCGGAGTCACCTAGTGCAG”, the binding signal was 23600 fluorescence intensity (a.u.).
For “TGAAACTTTTGATTGGACTGTAGCTCCAGAAGAGTTGAAGCGGAGTCACCTAGTGCAG”, the binding signal was 30700 fluorescence intensity (a.u.).

From PMC7819943, “Rice protein-binding microarrays: a tool to detect cis-acting elements near promoter regions in rice”
